For some of these results: At least one read-out could not be matched to a standard name with certainty. Some results were stated once for a whole list of compounds, not compound by compound.
How the values were obtained:
[1] = system: abdominal skin of CD male rats; test: Testing for irritation by single subcutaneous administration to rats; format: in vivo; settings: single subcutaneous administration 0.1 ml, 2% in DMSO and saline
Protocol: Experiment 2: Testing for Irritation by Single Subcutaneous Administration to Rats
A test compound was measured and dissolved in DMSO and a saline solution in a concentration of 2%.

[2] = system: dTGR (double transgenic: rats transgenic for human renin/angiotensinogen); test: Hypotensive evaluation test using double transgenic rats, and combination effect test; format: in vivo; settings: single administration of a single drug or two drugs, n = 3, change from data before administration, valsartan 2 mg/kg, amlodipine besylate 5 mg/kg, hydrochlorothiazide 20 mg/kg
[3] = one day after the administration
[4] = three days after the administration

Compound | inflammation at the administered site [1, 3] | inflammation at the administered site [1, 4] | Decreased amount of Average blood pressure (mmHg) [2]
CCC(=O)NCCN1C(=O)C2(CCC2)Oc2cc(C)c(C(=O)N(C(C)C)[C@@H]3CCCNC3)cc21.Cl [Comparative Example 3, N-isopropyl-7-methyl-3-oxo-N-[(3R)-piperidin-3-yl]-4-[2-(propionylamino)ethyl]-3,4-dihydrospiro[1,4-benzoxazine-2,1′-cyclobutane]-6-carboxamide hydrochloride, reference compound] | intense inflammation was induced and observed | intense inflammation was sustained | 
COCCCCN1C(=O)C(C)(C)Oc2cc(C(F)(F)F)c(C(=O)N(C(C)C)[C@@H]3CCCNC3)cc21.Cl [Comparative Example 1, 4-(4-methoxybutyl)-2,2-dimethyl-3-oxo-N-[(3R)-3-piperidinyl]-N-(2-propanyl)-7-(trifluoromethyl)-3,4-dihydro-2H-1,4-benzoxazine-6-carboxamide hydrochloride, reference compound] | intense inflammation was induced and observed | intense inflammation was sustained | 
CCC(=O)NCCN1C(=O)C2(CCC2)Oc2cc(C)c(C(=O)N(C(C)C)[C@@H]3CCCN(C(=O)O[C@H](C)OC(=O)C(C)C)C3)cc21 [Example 82] |  |  | 30.9 mmHg
CCC(=O)NCCN1C(=O)C(C)(C)Oc2cc(C)c(C(=O)N(C(C)C)C3CCCN(C(=O)OC(C)OC(=O)C4CCOCC4)C3)cc21 (single isomer, unassigned) [Example 87] |  |  | 34.9 mmHg
CCCCC(=O)N(Cc1ccc(-c2ccccc2-c2nnn[nH]2)cc1)[C@H](C(=O)O)C(C)C [valsartan, reference compound] |  |  | 29.5 mmHg
NS(=O)(=O)c1cc2c(cc1Cl)NCNS2(=O)=O [hydrochlorothiazide, reference compound] |  |  | 12.5 mmHg
CCC(=O)NCCN1C(=O)C(C)(C)Oc2cc(C(F)(F)F)c(C(=O)N(C(C)C)[C@@H]3CCCNC3)cc21.Cl [Comparative Example 2, 2,2-dimethyl-3-oxo-N-[(3R)-3-piperidinyl]-4-[2-(propanoylamino)ethyl]-N-(2-propanyl)-7-(trifluoromethyl)-3,4-dihydro-2H-1,4-benzoxazine-6-carboxamide hydrochloride, reference compound] | intense inflammation was induced and observed | intense inflammation was sustained | 
CCC(=O)NCCN1C(=O)C(C)(C)Oc2cc(C)c(C(=O)N(C(C)C)[C@@H]3CCCN(C(=O)O[C@H](C)OC(=O)C(C)C)C3)cc21 [Example 67] |  |  | 27.9 mmHg
CCC(=O)NCCN1C(=O)C(C)(C)Oc2cc(C)c(C(=O)N(C(C)C)[C@@H]3CCCN(C(=O)OCc4oc(=O)oc4C)C3)cc21 [Example 2, (5-Methyl-2-oxo-1,3-dioxol-4-yl)methyl (3R)-3-[isopropyl({2,2,7-trimethyl-3-oxo-4-[2-(propionylamino)ethyl]-3,4-dihydro-2H-1,4-benzoxazin-6-yl}carbonyl)amino]piperidine-1-carboxylate] |  |  | 30.9 mmHg
CCC(=O)NCCN1C(=O)C2(CCC2)Oc2cc(C)c(C(=O)N(C(C)C)[C@@H]3CCCN(C(=O)OCc4oc(=O)oc4C)C3)cc21 [Example 81] |  |  | 27.7 mmHg

Source: patent US8658639B2, “N-substituted-cyclic amino derivative” (Dainippon Sumitomo Pharma Co., Ltd, priority 2009, dated 2014)
